# Data as given in PubChem BioAssay AID1030 (National Center for Advancing Translational Sciences (NCATS), 2008).
# Among all 220,000 compounds or so, about 16,000 (7.3%) were called active. The inconclusive results got no clear call from the source; some entries with a clear call stand among them for comparison. The call rests on the fitted dose curve; in most records, active means well fitted inhibition curve with a large enough effect (not every such curve was filed as active); inconclusive means small, poorly fitted or top-dose-only effect, or another doubt; inactive means no such curve, though single readings can be large or run the other way. No potency is given beside an inconclusive call; the fits are too rough.
# Target: Aldehyde dehydrogenase 1A1 (Homo sapiens) (UniProt P00352)
# Assay: qHTS Assay for Inhibitors of Aldehyde Dehydrogenase 1 (ALDH1A1);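 on activity, negative = inhibition: plate controls were no enzyme wells and a reference inhibitor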
# Settings: Purified ALDH1A1, NADH fluorescence, propionaldehyde substrate; series mostly up to 75.3 µM
# Potency means the concentration at half of the fitted maximal effect; tags describe the fitted curve by direction and shape.
# Chain of UniProt P00352 (P00352 whole entry, looked up): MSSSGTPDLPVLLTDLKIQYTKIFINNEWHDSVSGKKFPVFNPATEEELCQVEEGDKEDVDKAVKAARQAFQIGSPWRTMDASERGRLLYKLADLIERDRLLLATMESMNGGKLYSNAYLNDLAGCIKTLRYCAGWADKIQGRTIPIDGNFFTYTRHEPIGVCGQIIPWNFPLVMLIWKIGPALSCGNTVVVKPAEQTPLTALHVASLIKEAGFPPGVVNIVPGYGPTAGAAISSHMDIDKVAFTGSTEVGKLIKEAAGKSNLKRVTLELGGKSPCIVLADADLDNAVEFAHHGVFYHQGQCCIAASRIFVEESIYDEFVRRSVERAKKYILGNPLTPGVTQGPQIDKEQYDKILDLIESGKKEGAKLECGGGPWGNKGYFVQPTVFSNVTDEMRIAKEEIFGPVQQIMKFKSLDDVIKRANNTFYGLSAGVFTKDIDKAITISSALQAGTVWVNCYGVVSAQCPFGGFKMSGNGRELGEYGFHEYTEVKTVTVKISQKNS
SMILES,Potency,"activity, negative = inhibition"
COC(=O)c1c(NC(=O)CN2CCN(c3ccccc3Cl)CC2)sc(C)c1C,active: 3.55 µM,
NC(=O)CSc1nnc(-c2ccc(S(=O)(=O)N3CCOCC3)cc2)n1Cc1ccccc1,"inconclusive [inhibitor, partial curve]",
Cc1nn(C(CC(=O)O)C(=O)O)c(C)c1Br (centres undefined),inactive,
CCOC(=O)c1c(NC(=S)Nc2ccc(OCC)cc2)sc2c1CCN(C)C2,active: 23.8 µM,
O=C(CCS(=O)(=O)c1ccccc1)Nc1ccc2c(c1)C(=O)NC2=O,"inconclusive [inhibitor, full curve, poor fit]",
CCN(CC)c1ccc(NC(=O)COC(=O)C23CCC(=O)N2c2ccccc2S3)cc1 (centres undefined),"inconclusive [inhibitor, single point]",
CC1(C)CC(=O)C(C=NCCN2CCN(C3CC(=O)N(c4cccc(Br)c4)C3=O)CC2)=C(O)C1 (centres undefined),active: 25.1 µM,
O=C(CCN1C(=O)C2C3C=CC(C3)C2C1=O)NCCc1ccccc1 (centres undefined),"inconclusive [inhibitor, single point]",
Cn1cnnc1SCC(=O)Nc1sc2c(c1C#N)CCCCC2,active: 7.08 µM,
COc1ccc(N2C(=O)CCC(C(=O)N(C)CCc3ccccn3)C2c2ccc(OC)c(OC)c2)cc1 (centres undefined),inactive,
C/C(=N\Nc1cc(-c2ccccc2)nc(-c2ccccc2)n1)c1ccc(O)c(C)c1,inactive,
CCCCc1ccc(/C=C2\C(=O)c3ccccc3C(O)=C2C(=O)OCC)cc1,"inconclusive [inhibitor, single point]",
Cc1nnc(SCC(=O)c2cc(C)n(-c3ccc4c(c3)OCO4)c2C)s1,"inconclusive [inhibitor, single point]",
CCn1cc(C(=O)N2CCN(c3ccc([N+](=O)[O-])cc3)CC2)c(=O)c2ccc(C)nc21,active: 25.1 µM,
COc1ccccc1N1CCN(C(=O)CN(c2ccccc2OC)S(=O)(=O)c2ccccc2)CC1,inactive,
Cc1ccccc1NC(=S)NNc1ncc(C(F)(F)F)cc1Cl,active: 10 µM,
CCOc1c2ccoc2nc2c(OC)c(OC)ccc12,"inconclusive [inhibitor, partial curve]",
COc1ccc2c(c1)O[C@@H]1c3ccc(OC)cc3OCC21 (some centres undefined),inactive,
CCn1c(C)c(CCC(=O)O)c(=O)n2nc(-c3ccccc3OC)cc12,"inconclusive [inhibitor, partial curve]",
O=C(CSc1ncccn1)N1CCN(Cc2ccccc2)CC1,active: 28.2 µM,
CN(Cc1ccco1)c1ccnc(-c2ccccc2C(F)(F)F)n1,"inconclusive [inhibitor, partial curve]",
O=C(COC(=O)COc1ccccc1[N+](=O)[O-])Nc1ccc(S(=O)(=O)N2CCCCC2)cc1,active: 14.1 µM,
CC(C)Oc1ccc(C(=O)NCc2ccco2)cc1,inactive,
Cc1nn(-c2ccccc2)c(C)c1/C=C/C(=O)OC(C)C(=O)Nc1ncc(Cl)cc1Cl (centres undefined),"inconclusive [inhibitor, single point]",
Cc1nn(C)c(Cl)c1CN1CCC(CO)(CC2CCCCO2)CC1 (centres undefined),inactive,

SMILES,Potency,"activity, negative = inhibition"
Cc1cnc(N2C(=O)c3ccc([N+](=O)[O-])cc3C2=O)s1,"inconclusive [inhibitor, single point]",
CCc1nnc(NC(=O)C2CCN(c3cnccn3)CC2)s1,"inconclusive [inhibitor, single point]",
O=C(CSc1n[nH]c(-c2cccs2)n1)N1CCCc2ccccc21,inactive,
COc1ccc(/C=N/NC(=O)CNc2c(Br)cc(C)cc2Br)c(C(=O)O)c1OC,active: 7.08 µM,
Nc1c(C(=O)N2CCOCC2)sc2nc(N3CCOCC3)c3c(c12)CCCC3,"inconclusive [inhibitor, partial curve]",
O=C(c1cccs1)N1CCN(c2ncccn2)CC1,"inconclusive [inhibitor, single point]",
COc1ccccc1-n1cnnc1SCC(=O)c1ccc[nH]1,"inconclusive [inhibitor, partial curve]",
O=[N+]([O-])c1ccc(O)c(C=Nc2ccc3oc(Cc4ccc(Cl)cc4)nc3c2)c1,"inconclusive [inhibitor, single point]",
CC1CCC/C(=C\Nc2ccc(C(=O)O)cc2)C1=O (centres undefined),active: 14.1 µM,
COc1ccc(C(C)=O)cc1CSc1nnc(-c2ccncc2)n1C,inactive,
O=C(COc1cccnc1[N+](=O)[O-])N1CCN(C(=O)c2ccco2)CC1,inactive,
N=C1/C(=C\c2ccc(-c3cccc(Cl)c3)o2)C(=O)N=C2SC=C(c3ccccc3)N12,"inconclusive [inhibitor, single point]",
CCc1nnc(NC(=O)Cc2ccc(Br)cc2)s1,"inconclusive [inhibitor, single point]",
CCn1ncc(NC(=S)Nc2ccc3c(c2)OCO3)c1C(N)=O,"inconclusive [inhibitor, single point]",
COCCCNC(=S)NC(=O)c1ccc(C)cc1,"inconclusive [inhibitor, single point]",
O=C(NC(NNc1ccc([N+](=O)[O-])cc1)(C(F)(F)F)C(F)(F)F)c1ccc(F)cc1,"inconclusive [inhibitor, partial curve]",
COc1ccccc1-c1noc(CCC(=O)Nc2cc(C(F)(F)F)ccc2Cl)n1,inactive,
COc1cc(OC)cc(-n2nnnc2SCC(=O)Nc2nc3c(s2)CCCC3)c1,"inconclusive [inhibitor, partial curve]",
O=C(c1ccco1)N1CCC2(CCN(Cc3ccncc3)CC2)CC1,"inconclusive [inhibitor, single point]",
COc1cccc(CNS(=O)(=O)c2ccc(S(=O)(=O)N3CCCC3)cc2)c1,"inconclusive [inhibitor, partial curve]",
COc1ccc(NC(=O)c2ccc(Cl)nc2)cc1S(=O)(=O)N1CCCCC1,inactive,
COc1ccc(NS(=O)(=O)c2ccc(O)c(C(=O)OCC(=O)N3CC(C)OC(C)C3)c2)cc1 (centres undefined),"inconclusive [inhibitor, partial curve]",
COc1cc(NC(=O)NCc2ccncc2)cc(OC)c1OC,inactive,
COc1ccc(F)cc1C(=O)C1CCCN(Cc2cn(C)c3ccccc23)C1 (centres undefined),"inconclusive [inhibitor, single point]",
CN(C)C(CNC(=O)c1oc2ccccc2c1CSc1ncn[nH]1)c1ccco1 (centres undefined),"inconclusive [inhibitor, partial curve]",

SMILES,Potency,"activity, negative = inhibition"
CCOCC(=O)Nc1c(C(=O)OCC)oc2ccccc12,"inconclusive [inhibitor, single point]",
O=C(O)c1ccc(Sc2ccccn2)c([N+](=O)[O-])c1,"inconclusive [inhibitor, single point]",
O=C(Nc1ccc2c(c1)C(=O)OC2)c1ccc(F)cc1F,"inconclusive [inhibitor, single point]",
O=C1COc2ccc(C(=O)CSc3nnnn3-c3ccccc3)cc2N1,active: 5.01 µM,
c1ccc(-c2nc(-c3cccnc3)n[nH]2)cc1,inactive,
Cc1ccc(C(C(=O)NC2CCCC2)N2CCCCC2)cc1 (centres undefined),inactive,
COC(=O)[C@@]1(Cc2ccc(F)cc2)[C@H]2c3cc(C(=O)N4CCCC4)n(CCF)c3C[C@H]2CN1C(=O)c1ccccc1,"inconclusive [inhibitor, single point]",
O=C(CSCCc1ccccn1)Nc1cccnc1Cl,"inconclusive [inhibitor, single point]",
Cc1ccc(Nc2nnc(SCC(=O)c3ccc(Br)s3)s2)c(C)c1,"inconclusive [inhibitor, single point]",
C=CCn1c(SCc2ccc(C(=O)NCCO)cc2)nc2sc(C)c(C)c2c1=O,inactive,
O=C(NCCO)c1cc2ccccc2c(=O)s1,"inconclusive [inhibitor, single point]",
CNc1nc(SC)nc2ccsc12,inactive,
N=C(N)c1ccc(N=Nc2c(O)ccc3c2[nH]c2ccccc23)cc1,,inactive: 1.92% [at 13.5 µM]
COC(=O)C(C(=O)OC)[C@@H](NC=O)c1ccccc1,inactive,
CCC(CO)Nc1nc2ccc(Cl)cc2c2ccccc12 (centres undefined),"inconclusive [inhibitor, partial curve]",
CN(C(=O)COC(=O)c1n[nH]c2ccccc12)C1CCS(=O)(=O)C1 (centres undefined),"inconclusive [inhibitor, single point]",
CN(c1ccc(C(=O)N2CCN(Cc3ccc4c(c3)OCO4)CC2)cc1)S(=O)(=O)c1ccccc1,inactive,
CCC(C)C(NC(=O)OCc1ccccc1)C(=O)NC(Cc1ccc(O)cc1)C(=O)OC (centres undefined),inactive,
Cc1ccc(-n2nnnc2SCC(=O)c2cc(C)n(-c3cc(C)on3)c2C)cc1,"inconclusive [inhibitor, single point]",
COc1ccccc1C(=O)NCC(=O)NC1CCCc2ccccc21 (centres undefined),"inconclusive [inhibitor, single point]",
Cc1cccc(OC(=O)n2c(=S)oc3cc(Cl)ccc32)c1,active: 3.55 µM,
C/C(=C\c1ccccc1)CN1CCN(Cc2ccc(C)o2)C(CCO)C1 (centres undefined),inactive,
O=C(c1cnn2c(C(F)(F)F)cc(-c3ccc(Br)cc3)nc12)N1CCOCC1,inactive,
CCCn1c(-c2ccc(F)cc2)nc2c(NC3CC4CCC(C3)N4C)nc(C)nc21 (centres undefined),"inconclusive [inhibitor, single point]",
